{"source": "PubChem BioAssay (NCATS)", "note": "Inconclusive results, whose numbers are uncertain, are shown with a selection of clear calls. Potencies of inconclusive entries are doubtful fits and often do not repeat. The source made the active and inactive calls. Calls follow the shape of the dose curve; as a rule, active = well fitted inhibition curve with a large enough effect; inconclusive = small, poorly fitted or top-dose-only effect; inactive = no such curve, though single readings can be large or run the other way. Potency is read from the fitted curve at half-maximal effect; tags tell the direction and shape of the fitted curve."}
{"test": "qHTS screen for small molecules that inhibit ELG1-dependent DNA repair: Hit Confirmation in Cell-Based Luciferin Assay (AID 624247)", "conditions": "cell-free firefly luciferase luminescence counter-screen, ViewLux", "excerpt": "Cancer cells divide rapidly compared to normal cells in the body. During cell division, cancer cells need to duplicate their genome by DNA replication. The failure of genome duplication leads to cancer cells' death. Therefore, inhibitors of DNA replication could specifically kill cancer cells. Based on this concept, many chemotherapeutic agents were developed and have been used to treat cancer patients. However, there are a limited number of agents available in the clinical setting, and some of those that do exist have low efficacy and severe side effects. Therefore, if we can find the compounds that effectively block DNA replication either by directly damaging DNA or by inhibiting other cellular mechanisms, the options for cancer treatment will be broadened. With this in mind, we developed a quantitative high-throughput ELG1-luciferase reporter gene assay. Small molecules that specifically block ELG1 function in response to DNA damage can be identified by monitoring the suppression of luciferase activity. Since ELG1 defines a pathway for repairing DNA damage, agents blocking ELG1 function can be used to sensitize cancer cells to chemotherapeutic agents whose mechanism of action involves the induction of DNA damage. NIH Molecular Libraries Probe Production Network [MLPCN] NIH Chemical Genomics Center [NCGC] MLPCN Grant: R03 MH092164 Assay Provider: Kyungjae Myung, NHGRI, NIH\n3 µL of substrate reagent will be pipetted into each well in 1536-well white, solid-bottom plates using a FRD dispenser, followed by addition of 23 nL of DMSO or compounds by pintool. After compound addition, 1 µL of luciferase will be added into the wells. The plates will be read in a ViewLux CCD-based plate reader."}
{"smiles": "C=C1C(=O)O[C@@H]2C[C@@H](C)[C@@H]3C=CC(=O)[C@@]3(C)[C@@H](O)[C@H]12", "Potency": "inconclusive: 17.7 µM [inhibitor, partial curve]"}
{"smiles": "C[C@@H]1C[C@H]2CC[C@H](O2)[C@H](C)C(=O)O[C@@H](C)C[C@@H]2CC[C@@H](O2)[C@@H](C)C(=O)O[C@H](C)C[C@H]2CC[C@H](O2)[C@H](C)C(=O)O[C@@H](C)C[C@@H]2CC[C@@H](O2)[C@@H](C)C(=O)O1", "Potency": "inconclusive: 0.112 µM [inhibitor, full curve]"}
{"smiles": "CC(=O)[O][Sn]([c]1ccccc1)([c]1ccccc1)[c]1ccccc1", "Potency": "active: 1.99 µM"}
{"smiles": "COc1cc2c(cc1OC)[C@@H]1C(=O)c3ccc4c(c3OC1CO2)CC(C(C)C)O4", "note": "(some centres undefined)", "Potency": "inconclusive: 15.8 µM [inhibitor, partial curve]"}
{"smiles": "CC1O[C@@H](OC2CC[C@@]3(C=O)C4CC[C@]5(C)C(C6=CC(=O)OC6)CC[C@@]5(O)C4CC[C@]3(O)C2)C(O)C(O)C1O", "note": "(some centres undefined)", "Potency": "inconclusive: 0.199 µM [inhibitor, full curve]"}
{"smiles": "C[C@@H]1O[C@@H](O[C@H]2C[C@@H](O)[C@]3(CO)[C@H]4[C@H](O)C[C@]5(C)[C@@H](C6COC(=O)C6)CC[C@]5(O)[C@@H]4CC[C@]3(O)C2)[C@H](O)[C@H](O)[C@H]1O", "note": "(some centres undefined)", "Potency": "inconclusive: 3.97 µM [inhibitor, full curve]"}
{"smiles": "CCCCN=C[C@]12CCC(O)CC1(O)CCC1[C@@H]2CC[C@]2(C)[C@H](C3C=CC(=O)O3)CCC12O", "note": "(some centres undefined)", "Potency": "inconclusive: 1.26 µM [inhibitor, full curve]"}
{"smiles": "COC1C(O)C(C)O[C@H](OC2CC[C@@]3(C=O)C4CC[C@]5(C)C(C6=CC(=O)OC6)CC[C@@]5(O)C4CC[C@@H]3C2)C1O", "note": "(some centres undefined)", "Potency": "inconclusive: 0.141 µM [inhibitor, full curve]"}
{"smiles": "COc1ccc(C[C@H]2NC[C@H](O)[C@H]2OC(C)=O)cc1", "Potency": "active: 0.0126 µM"}
{"smiles": "CCOc1ccc(-c2c(C)n(-c3ccc(OCC)cc3)c3[n+]2CCCCC3)cc1", "Potency": "inconclusive: 4.45 µM [inhibitor, partial curve]"}
{"smiles": "CC[C@@H]1/C=C/C=C/C[C@H](C)[C@@H](O)[C@](C)(O)C(=O)[C@H](C)[C@@H](O)[C@H](C)C(=O)[C@H](C)[C@@H](O)[C@H](C)/C=C/C(=O)O[C@H]2[C@@H](C)[C@@H](CC1)O[C@@]1(CC[C@@H](C)[C@@H](C[C@H](C)O)O1)[C@@H]2C", "Potency": "inconclusive: 0.0315 µM [inhibitor, full curve]"}
{"smiles": "CC(=O)OC[C@]12CCC(C)=C[C@H]1O[C@@H]1[C@H](O)[C@@H](OC(C)=O)[C@@]2(C)[C@]12CO2", "Potency": "inconclusive: 0.0397 µM [inhibitor, full curve]"}
{"smiles": "CCOC(=O)c1ccc(NC(=O)c2nc[nH]c2C(=O)NCCNC(=O)c2[nH]cnc2C(=O)Nc2ccc(C(=O)OCC)cc2)cc1", "Potency": "inconclusive: 3.15 µM [inhibitor, partial curve, poor fit]"}
{"smiles": "CN[C@@H]1C[C@@]2(C)O[C@@H]([C@@H]1OC)n1c3ccccc3c3c4c(c5c6ccccc6n2c5c31)C(=O)NC4", "Potency": "active: 0.706 µM"}
